Results taken from PubChem BioAssay AID624417 (National Center for Advancing Translational Sciences (NCATS), 2012).
In all, about 410,000 compounds went through this assay and about 6,400 (1.6%) were called active. This list was built around the results that the source calls inconclusive (neither active nor inactive); the mix of calls is not that of the screen. Calls follow the shape of the dose curve; as a rule, active = well fitted inhibition curve with a large enough effect; inconclusive = small, poorly fitted or top-dose-only effect; inactive = no such curve, though single readings can be large or run the other way. Potencies of inconclusive entries are left out as doubtful fits.

What follows are compounds tested against Glucagon-like peptide 1 receptor (Homo sapiens) (UniProt P43220) (assay: qHTS of GLP-1 Receptor Inverse Agonists (Inhibition Mode)). Conditions: HEK293 GLP-1R CRE-luciferase, luminescence, 24 h, GLP-1R form is constitutively active; series mostly up to 38.3 µM.
How it was run: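 Assay principle: reduced luminescence from a cAMP-responsive reporter in HEK293 cells co-expressing a constitutively active GLP-1R. Conditions: 24 hr compound incubation, 37 deg C, 5% CO2.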
Also: nearly all actives have a fitted effect of over 55% in size.
Potency is read from the fitted curve at half-maximal effect; tags tell the direction and shape of the fitted curve.

UniProt P43220, sequence (P43220 whole entry, looked up): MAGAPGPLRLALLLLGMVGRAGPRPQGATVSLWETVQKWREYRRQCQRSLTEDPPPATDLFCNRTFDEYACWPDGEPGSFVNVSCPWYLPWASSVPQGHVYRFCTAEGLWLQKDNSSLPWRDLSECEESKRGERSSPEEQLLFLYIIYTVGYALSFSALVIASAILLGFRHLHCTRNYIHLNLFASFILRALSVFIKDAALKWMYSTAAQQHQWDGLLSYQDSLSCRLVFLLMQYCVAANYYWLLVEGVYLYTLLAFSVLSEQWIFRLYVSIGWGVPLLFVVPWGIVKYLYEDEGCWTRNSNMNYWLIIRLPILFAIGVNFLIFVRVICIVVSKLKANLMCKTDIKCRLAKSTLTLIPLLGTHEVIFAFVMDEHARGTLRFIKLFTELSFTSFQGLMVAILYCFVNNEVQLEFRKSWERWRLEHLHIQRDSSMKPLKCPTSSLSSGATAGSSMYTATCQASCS

SMILES | Potency
COc1ccc(-c2csc(NC(=S)NC(=O)c3ccco3)n2)cc1 | inactive
Cc1ccc(S(=O)(=O)N2CCCC2C(=O)Nc2nc3c(s2)CCCC3)cc1 (stereo not drawn) | inconclusive [inhibitor, partial curve, poor fit]
CC(CO)(CO)NCc1ccc(-c2ccccc2)cc1 | inconclusive [inhibitor, partial curve, poor fit]
Cc1cc(NC(=O)CCS(=O)(=O)c2ccc3c(c2)NC(=O)C(C)S3)ccc1Br (stereo not drawn) | inconclusive [inhibitor, partial curve, poor fit]
C=CCN(CC=C)S(=O)(=O)c1ccc(NC(=S)NC(=O)C2CC2)cc1 | inconclusive [inhibitor, partial curve, poor fit]
CCc1sc(C(=O)N2CCc3ccccc32)cc1C | inconclusive [inhibitor, single point]
COc1ccc(N2CCN(C(=O)CC(C)S(=O)(=O)c3ccc4c(c3)NC(=O)CO4)CC2)cc1 (stereo not drawn) | inactive
Cc1cc(OCc2cc(C(=O)NCc3csc(C(C)C)n3)no2)cc(C)c1Cl | inconclusive [inhibitor, partial curve, poor fit]
Cc1ccc(C(C)C)c(OCC(=O)Nc2cccc(S(=O)(=O)NC3=NCCCCC3)c2)c1 | inconclusive [inhibitor, single point]
CCOc1cc(C2CC(=O)c3c(ccc4ccccc34)N2)ccc1O (stereo not drawn) | inconclusive [inhibitor, partial curve]
OC(c1cccc(Cl)c1)c1ncc(-c2ccc3ccccc3c2)[nH]1 (stereo not drawn) | inconclusive [inhibitor, partial curve, poor fit]
Cc1nccn1C[C@@H]1CCc2c(c3ccccc3n2C)C1=O | inactive
CCC1CCCCN1CCCNC(=O)c1csc2c1CCCCC2 (stereo not drawn) | inconclusive [inhibitor, partial curve, poor fit]
CCOc1ccc(NC(=O)c2nn(C)c3c2COc2ccccc2-3)cc1 | inactive
O=C(CCSc1nc(-c2ccc3c(c2)OCO3)cc(C(F)(F)F)n1)NCc1ccccc1 | inconclusive [inhibitor, partial curve, poor fit]
CC1CCN(Cc2c(C(=O)N/N=C/c3ccc(C(C)C)cc3)nnn2-c2nonc2N)CC1 | inconclusive [inhibitor, partial curve, poor fit]
COc1ccccc1CNC(=O)c1cccc(NC(=O)c2ccccc2)c1 | inconclusive [inhibitor, partial curve, poor fit]
O=S(=O)(NCCC1=CCCCC1)c1cccc(Br)c1 | inconclusive [inhibitor, single point]
O=C(c1ccc(Cl)cc1)n1nc(-c2ccccc2)nc1NCc1ccco1 | inactive
CC(=O)NC(c1ccco1)c1ccc2cccnc2c1O (stereo not drawn) | inconclusive [inhibitor, full curve, poor fit]
COc1ccc(NC(=O)C(Sc2ccccc2)c2ccccc2)c(OC)c1 (stereo not drawn) | inconclusive [inhibitor, partial curve, poor fit]

SMILES | Potency
COc1ccc(C)cc1NC(=O)C1CC1c1ccccc1 (stereo not drawn) | inconclusive [inhibitor, single point]
O=C(NCc1ccc2c(c1)OCO2)c1ccc2c(c1)OCO2 | inactive
O=C(COc1ccc2c(c1)CCC2)NCc1ccc(Cl)cc1 | inconclusive [inhibitor, single point]
CC(C)(C)c1ccc(-c2nnc(NC(=O)c3ccccc3)s2)cc1 | inconclusive [inhibitor, full curve]
Cc1ccc(N(Cc2ccc([N+](=O)[O-])cc2)C(=O)c2ccco2)cc1 | inconclusive [inhibitor, single point]
Cc1cc(C)cc(NC(=O)c2ccc(S(=O)(=O)C(F)F)cc2)c1 | inconclusive [inhibitor, single point]
CC(C)=CCc1cc([C@@H]2CC(=O)c3ccc(O)c(CC=C(C)C)c3O2)ccc1O | inactive
Cc1ccc(C)c(NC(=O)C(OC(=O)c2ccc(CO)cc2)c2ccccc2)c1 (stereo not drawn) | inconclusive [inhibitor, partial curve, poor fit]
COc1cccc(NC(=O)CN(C)C(=O)C(Sc2ccccc2)c2ccccc2)c1 (stereo not drawn) | active: 11.2 µM
CCCSc1oc(-c2ccco2)nc1S(=O)(=O)c1ccc(C)cc1 | inconclusive [inhibitor, single point]
Cn1c(=O)n(C)c2cc(CNCc3ccccc3Cl)ccc21 | inactive
CN(C)c1ccc(N/C=C/C(=O)C(C)(C)C)cc1 | inconclusive [inhibitor, partial curve, poor fit]
O=C(NC(c1ccccc1)c1ccccc1)c1ccccc1 | inconclusive [inhibitor, partial curve, poor fit]
COc1ccc2nc(N3CCCC(C(=O)NCCCN4CCN(C)CC4)C3)sc2c1 (stereo not drawn) | inconclusive [inhibitor, single point]
COCCNC(=O)C(OC(=O)c1nsc(Cl)c1Cl)C(C)C (stereo not drawn) | inactive
CN(C)CCCNC(=O)/C(=C\C=C\c1ccccc1)NC(=O)c1ccc([N+](=O)[O-])cc1 | inconclusive [inhibitor, single point]
O=S(=O)(N/N=C/c1cn(Cc2ccccc2)c2ccccc12)c1ccccc1 | inconclusive [inhibitor, partial curve, poor fit]
Cc1ccc(C(=O)NC(C)c2ccc(C)c(C)c2)s1 (stereo not drawn) | inconclusive [inhibitor, partial curve]
Cc1ccc(NS(=O)(=O)c2sc3ccc(Cl)cc3c2C)cc1 | inconclusive [inhibitor, single point]
O=C(CSc1ccc2ccccc2c1Br)Nc1cccc(S(=O)(=O)NC2=NCCCCC2)c1 | inconclusive [inhibitor, single point]
Cc1sc(N/N=C/C=C/c2ccccc2)nc1-c1ccccc1 | inconclusive [inhibitor, partial curve, poor fit]

SMILES | Potency
CC(C)C[C@H](NC(=O)c1[nH]cnc1C(=O)N[C@@H](Cc1ccccc1)C(=O)OCc1ccccc1)C(=O)OC(C)(C)C | inconclusive [inhibitor, single point]
CC1CCc2nc(NC(=O)c3cc(C(C)(C)C)nn3C)sc2C1 (stereo not drawn) | inconclusive [inhibitor, partial curve, poor fit]
CCCCN1C[C@H](CO)Oc2cccc(F)c2S1(=O)=O | inactive
COc1ccc(/C=C(/NC(=O)c2ccco2)C(=O)N2CCCCC2)cc1 | inactive
CC(C)(C)CC(=O)Nc1ccc(Nc2ccccc2)cc1 | inconclusive [inhibitor, partial curve, poor fit]
O=c1[nH]c(C2CCN(S(=O)(=O)/C=C/c3ccccc3)CC2)nc2c1nnn2Cc1ccc(F)cc1 | inconclusive [inhibitor, single point]
Cc1ccc(CCNC(=O)c2cc3ccccn3n2)cc1 | inactive
Cc1ccc2c(c1)N(C(C)C(=O)NCCc1ccccc1)C(=O)CO2 (stereo not drawn) | inconclusive [inhibitor, single point]
Cc1ccc(O)c(C(=O)CC(=O)c2cccc(F)c2)c1 | inconclusive [inhibitor, single point]
CC(C)[C@H](NC(=O)N1CCn2c1nc1ccccc12)C(=O)NCc1ccccc1Cl | inconclusive [inhibitor, full curve, poor fit]
COc1ccc(NC(=O)CC2C(=O)N(C)C(=S)N2Cc2cccs2)cc1 (stereo not drawn) | inconclusive [inhibitor, partial curve, poor fit]
CCOc1ccccc1N(C(=O)c1ccco1)C(C(=O)NC1CCCC1)c1cccs1 (stereo not drawn) | inconclusive [inhibitor, single point]
C=CCn1c(SCC(=O)N2CCCCCC2)nc2ccccc2c1=O | inconclusive [inhibitor, partial curve]
COCCNC(=O)/C(C#N)=C/c1cc(C)n(C2CCCCC2)c1C | inconclusive [inhibitor, single point]
COc1cc(/C=C(/C#N)c2ccccc2F)ccc1OCc1ccccc1 | inconclusive [inhibitor, partial curve, poor fit]
COC(=O)c1ccccc1NC(=O)CN(c1ccc(OC)cc1)S(C)(=O)=O | inconclusive [inhibitor, single point]
O=C1CSc2ccc(C(=O)NCC(c3ccco3)N3CCCCC3)cc2N1 (stereo not drawn) | inconclusive [inhibitor, partial curve, poor fit]
O=C(c1ccc(OC2CCN(CCCc3ccccc3)CC2)cc1)N1CCCC1 | inconclusive [inhibitor, full curve]
CCc1cccc(NC(=O)CN2C(=O)COc3ccc(S(=O)(=O)N4CCC(C)CC4)cc32)c1 | inconclusive [inhibitor, single point]
CCn1c2ccccc2c2cc(Nc3cc(C)nc4ncnn34)ccc21 | inconclusive [inhibitor, full curve, poor fit]
CCOC(=O)c1nc2ccc(C)cc2c2c1C1CC(c3c(Cl)cccc31)N2C(=O)OCc1ccccc1 (stereo not drawn) | active: 5.01 µM
